{"source": "the supplement of paper PMC10600219", "note": "Counter-ions that a name gives are not always drawn. Over roughly 2,800 compounds, “cell viability relative to vehicle” has its median near 0.98; the lowest 2% begin near 0.45. The list shows a part of the results.", "data": [{"tested_on": "NCI-H2228 alectinib-DTP", "experiment": "cell viability relative to vehicle (fraction of vehicle); NCI-H2228 is an ALK-positive lung cancer line and DTP means drug-tolerant persister; higher = less growth inhibition", "settings": "100 nM; treatment time 6 days", "method_in_brief": "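Drug-tolerant persister NCI-H2228 cells, produced by 13 days in 1000 nM of a targeted drug, and their parental counterparts were seeded into 384-well plates and, the following day, given the 3114-agent TargetMol anti-cancer compound library at 100 nM or DMSO vehicle. After 6 days, the CellTiter-Glo 3D Cell Viability Assay was used to read ATP. Each entry reports viability compared with vehicle-treated cells.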", "values": [{"smiles": "O=C(O)CCCC[C@@H]1CCSS1", "note": "(racemic) [Thioctic acid]", "cell viability": 1.08}, {"smiles": "NC(N)=Nc1nc(CSCC/C(N)=N/S(N)(=O)=O)cs1", "note": "[Famotidine]", "cell viability": 1.01}, {"smiles": "Cc1cc(-c2ccccc2)nnc1NCCN1CCOCC1", "note": "[Minaprine dihydrochloride]", "cell viability": 1.01}, {"smiles": "Cc1cc(C=C2SC(=O)N(c3ccccc3)C2=O)c(C)n1-c1cccnc1", "cell viability": 1.02}, {"smiles": "CSc1ccc2c(c1)N(CCC1CCCCN1C)c1ccccc1S2", "note": "(configuration not stated) [Thioridazine hydrochloride]", "cell viability": 1.15}, {"smiles": "CC1=C(/C=C/C(C)=C/C=C/C(C)=C\\C(=O)O)C(C)(C)CCC1", "note": "[Isotretinoin]", "cell viability": 0.675}, {"smiles": "CC/C(=C(/CC)c1ccc(O)cc1)c1ccc(O)cc1", "note": "[Diethylstilbestrol]", "cell viability": 0.958}, {"smiles": "COc1cc(OC)c(/C=C/S(=O)(=O)Cc2ccc(OC)c(NCC(=O)O)c2)c(OC)c1", "cell viability": 0.655}, {"smiles": "CC(C)(C)S(=O)(=O)c1ccc2nccc(Nc3n[nH]c4ccc(F)cc34)c2c1", "cell viability": 0.958}, {"smiles": "COc1ccc(-c2ccc3c(N4CCOCC4)nc(N4C[C@@H](C)O[C@@H](C)C4)nc3n2)cc1CO", "cell viability": 0.765}, {"smiles": "CC(=O)CC/C=C(\\C)CC/C=C(\\C)CC/C=C(\\C)CCC=C(C)C", "note": "[Teprenone]", "cell viability": 0.981}, {"smiles": "Cc1cc(C)cc(Oc2ccc(CNC(=O)[C@H](C)N)cc2C)c1", "cell viability": 1.02}, {"smiles": "Cc1ccc([N+](=O)[O-])cc1S(=O)(=O)N(C)/N=C/c1cnc2ccc(Br)cn12", "cell viability": 0.172}, {"smiles": "Cc1ccc([N+](=O)[O-])cc1S(=O)(=O)N(C)/N=C/c1cnc2ccc(Br)cn12", "note": "[PIK-75  hydrochloride]", "cell viability": 0.201}, {"smiles": "Cc1noc(C)c1-c1ccc(-c2cc(C(N)=O)c(NC(N)=O)s2)c(O[C@H]2CCNC2)c1", "cell viability": 0.933}, {"smiles": "CCN(c1cc(C#CCN2CCOCC2)cc(C(=O)NCc2c(C)cc(C)[nH]c2=O)c1C)[C@H]1CC[C@H](N(C)CCOC)CC1", "cell viability": 0.96}, {"smiles": "O=c1cc(-c2ccc(O)cc2)oc2c([C@@H]3O[C@H](CO)[C@@H](O)[C@H](O)[C@H]3O)c(O)cc(O)c12", "note": "[Vitexin]", "cell viability": 1.14}, {"smiles": "CCCCCCCc1ccc(CCc2cccc(O)c2C(=O)O)cc1", "cell viability": 0.987}, {"smiles": "C/C=C(/C)C(=O)O[C@@H]1[C@H](OC(C)=O)c2c(ccc3ccc(=O)oc23)OC1(C)C", "note": "[Praeruptorin A]", "cell viability": 0.976}, {"smiles": "CC(C)C[C@H](NC(=O)CNC(=O)c1cc(Cl)ccc1Cl)B1OC(=O)C(CC(=O)O)(CC(=O)O)O1", "cell viability": 0.342}, {"smiles": "CC[C@@H](CO)NCCN[C@@H](CC)CO", "note": "[Ethambutol dihydrochloride]", "cell viability": 0.951}, {"smiles": "CCN(CC)CCCCNc1ncc2cc(-c3cc(OC)cc(OC)c3)c(NC(=O)NC(C)(C)C)nc2n1", "cell viability": 0.715}, {"smiles": "N#C/C(=C\\c1ccc(O)c(O)c1)C(=O)NCc1ccccc1", "cell viability": 0.897}, {"smiles": "C#C[C@]1(O)CC[C@H]2[C@@H]3CCC4=CC(=O)CC[C@@H]4[C@H]3CC[C@@]21CC", "note": "[Levonorgestrel]", "cell viability": 1.04}, {"smiles": "C[C@@H]1CCCCCCCCCCCCC(=O)C1", "note": "[Muscone]", "cell viability": 1.09}, {"smiles": "Cc1cc(SCc2sc(-c3ccc(C(F)(F)F)cc3)nc2C)ccc1OCC(=O)O", "cell viability": 1.05}, {"smiles": "Cc1cc(C(=O)Nc2cccc(C(=O)Nc3cccc(C(F)(F)F)c3)c2)on1", "cell viability": 1.1}, {"smiles": "Cn1cc(-c2ccc3c(c2)CCN3C(=O)Cc2cccc(C(F)(F)F)c2)c2c(N)ncnc21", "cell viability": 0.952}, {"smiles": "Oc1cccc(-c2nc(N3CCOCC3)c3oc4ncccc4c3n2)c1", "cell viability": 0.717}, {"smiles": "CCC(=O)N1CC[C@H](Nc2ncnc3c2CN(c2cnc(OC)c(C(F)(F)F)c2)CC3)C1", "note": "[Leniolisib]", "cell viability": 0.904}, {"smiles": "Fc1ccc(-c2c3cccc(C(F)(F)F)c3nn2Cc2ccc(F)cc2Cl)cc1", "cell viability": 1.03}, {"smiles": "CCOc1cc2c(c(F)c1OCC)C(=N)N(CC(=O)c1cc(N3CCOCC3)c(OC)c(C(C)(C)C)c1)C2", "note": "[Atopaxar Hydrobromide]", "cell viability": 1.06}, {"smiles": "O=C(/C=C/c1ccc(O)c(O)c1)O[C@@H]1C[C@](O)(C(=O)O)C[C@@H](O)[C@H]1O", "note": "[Chlorogenic Acid]", "cell viability": 0.993}, {"smiles": "O=c1ccccn1CC1(O)CCN(Cc2ccccc2)CC1", "cell viability": 1.06}, {"smiles": "CN(C)CC/C=C1/c2ccccc2COc2ccc(CC(=O)O)cc21", "note": "[Olopatadine hydrochloride]", "cell viability": 0.879}, {"smiles": "Nc1ncnc2n[nH]c(Nc3ccc(F)cc3)c12", "cell viability": 1.03}, {"smiles": "CN(C)Cc1ccc(S(=O)(=O)n2ccc(/C=C/C(=O)NO)c2)cc1", "note": "[Resminostat hydrochloride]", "cell viability": 1.15}, {"smiles": "c1ccc(CN(CC2=NCCN2)c2ccccc2)cc1", "note": "[Antazoline hydrochloride]", "cell viability": 1.13}, {"smiles": "CCc1c(-c2ccc(C(=O)NC)nc2)cnc(N)c1-c1ccc(O)cc1", "cell viability": 1.13}, {"smiles": "C[C@H](NC(=O)C(=O)Nc1ccccc1C(C)(C)C)C(=O)N[C@@H](CC(=O)O)C(=O)COc1c(F)c(F)cc(F)c1F", "note": "[Emricasan]", "cell viability": 0.914}, {"smiles": "C=CC(=O)Nc1cccc(Oc2nc(Nc3ccc(N4CCN(C)CC4)cc3)nc3ccsc23)c1", "note": "[Olmutinib]", "cell viability": 0.977}, {"smiles": "Cc1ccc(-n2nc(C(C)(C)C)cc2NC(=O)Nc2ccc(OCCN3CCOCC3)c3ccccc23)cc1", "note": "[Doramapimod]", "cell viability": 0.976}, {"smiles": "O=c1c(-c2ccc(O[C@@H]3O[C@H](CO)[C@@H](O)[C@H](O)[C@H]3O)cc2)coc2cc(O)cc(O)c12", "note": "[Sophoricoside]", "cell viability": 0.955}, {"smiles": "COCCOc1ccc(N2CCN(CCn3ncc4c3nc(N)n3nc(-c5ccco5)nc43)CC2)cc1", "note": "[Preladenant]", "cell viability": 1.02}, {"smiles": "C=C1CC[C@H]2C(=C)CC[C@H]3C(=C)C(=O)O[C@@H]3[C@@H]12", "note": "[Dehydrocostus Lactone]", "cell viability": 0.984}, {"smiles": "CC(C)S(=O)(=O)c1ccc2nccc(Nc3ccc4scnc4c3)c2c1", "cell viability": 0.974}, {"smiles": "CC(=O)Nc1ccn([C@@H]2O[C@H](CO)[C@@H](O)[C@H]2O)c(=O)n1", "note": "[N4-Acetylcytidine]", "cell viability": 0.97}, {"smiles": "CNC(=O)c1ccc(C)c(-n2c(C)cc(OCc3ccc(F)cc3F)c(Br)c2=O)c1", "cell viability": 0.926}, {"smiles": "Cc1cc(OCc2nnc(SC3CCCC3)n2-c2cccnc2)ccc1-c1ccc(S(C)(=O)=O)cc1", "cell viability": 0.799}, {"smiles": "O=C1NC(=O)C(=Cc2ccc(-c3ccc(F)cc3)o2)S1", "note": "(stereo in doubt)", "cell viability": 1}, {"smiles": "CN(C)C/C=C/C(=O)Nc1cc2c(Nc3ccc(F)c(Cl)c3)ncnc2cc1O[C@H]1CCOC1", "note": "[Afatinib]", "cell viability": 0.829}, {"smiles": "CN(C)C/C=C/C(=O)Nc1cc2c(Nc3ccc(F)c(Cl)c3)ncnc2cc1O[C@H]1CCOC1", "note": "[Afatinib Dimaleate]", "cell viability": 0.668}]}]}
